# Data from the supplement of paper PMC8728848.
# This is one part of the list.
# B1: Siglec-9 (Homo sapiens), Q9Y336 (protein)
# chain: MLLLLLPLLWGRERAEGQTSKLLTMQSSVTVQEGLCVHVPCSFSYPSHGWIYPGPVVHGYWFREGANTDQDAPVATNNPARAVWEETRDRFHLLGDPHTKNCTLSIRDARRSDAGRYFFKMEKGSIKWNYKHHRLSVNVTALTHRPNILIPGTLESGCPQNLTCSVPWACEQGTPPMISWIGTSVSPLDPSTTRSSVLTLIPQPQDHGTSLTCQVTFPGASVTTNKTVHLNVSYPPQNLTMTVFQGDGTVSTVLGNGSSLSLPEGQSLRLVCAVDAVDSNPPARLSLSWRGLTLCPSQPSNPGVLELPWVHLRDAAEFTCRAQNPLGSQQVYLNVSLQSKATSGVTQGVVGGAGATALVFLSFCVIFVVVRSCRKKSARPAAGVGDTGIEDANAVRGSASQGPLTEPWAEDSPPDQPPPASARSSVGEGELQYASLSFQMVKPWDSRGQEATDTEYSEIKIHR
# Columns and labels:
# Test in all cases: glycan array binding signal (z-score within array); higher = stronger binding
# Settings in all cases: glycan notation: IUPAC condensed, linker removed; mutation: R120K
# [1] = target: Neu5Ac(a2-3)Gal(b1-4)GlcNAc(b1-2)Man(a1-3)[Neu5Ac(a2-6)Gal(b1-4)GlcNAc(b1-2)Man(a1-6)]Man(b1-4)GlcNAc(b1-4)GlcNAc
# In short: (§1)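 Negative Z-scores can be read as non-binding. The Z-score is calculated within each array and then averaged across arrays of one protein sequence at different concentrations or buffers and across linkers. Arrays, 3228 in all, were curated from the Consortium for Functional Glycomics database and kept only where the protein sequence was available.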
# [2] = target: Neu5Ac(a2-3)Gal(b1-4)GlcNAc(b1-2)[Neu5Ac(a2-3)Gal(b1-4)GlcNAc(b1-4)]Man(a1-3)[GlcNAc(b1-4)][Neu5Ac(a2-3)Gal(b1-4)GlcNAc(b1-2)[Neu5Ac(a2-3)Gal(b1-4)GlcNAc(b1-6)]Man(a1-6)]Man(b1-4)GlcNAc(b1-4)GlcNAc
# In short: as §1
# [3] = target: Neu5Ac(a2-3)Gal(b1-4)GlcNAc(b1-2)[Neu5Ac(a2-3)Gal(b1-4)GlcNAc(b1-4)]Man(a1-3)[GlcNAc(b1-4)][Neu5Ac(a2-3)Gal(b1-4)GlcNAc(b1-4)Man(a1-6)]Man(b1-4)GlcNAc(b1-4)GlcNAc
# In short: as §1
# [4] = target: Neu5Ac(a2-3)Gal(b1-4)GlcNAc(b1-2)[Neu5Ac(a2-3)Gal(b1-4)GlcNAc(b1-6)]Man(a1-6)[Neu5Ac(a2-3)Gal(b1-4)GlcNAc(b1-2)Man(a1-3)][GlcNAc(b1-4)]Man(b1-4)GlcNAc(b1-4)GlcNAc
# In short: as §1
# [5] = target: Neu5Ac(a2-3)Gal(b1-4)GlcNAc(b1-3)Gal
# In short: as §1
# [6] = target: Neu5Ac(a2-3)Gal(b1-4)GlcNAc(b1-3)Gal(b1-3)GlcNAc
# In short: as §1
# [7] = target: Neu5Ac(a2-3)Gal(b1-4)GlcNAc(b1-3)Gal(b1-4)GlcNAc
# In short: as §1
# [8] = target: Neu5Ac(a2-3)Gal(b1-4)GlcNAc(b1-3)Gal(b1-4)GlcNAc(b1-2)Man(a1-3)[Neu5Ac(a2-3)Gal(b1-4)GlcNAc(b1-3)Gal(b1-4)GlcNAc(b1-2)Man(a1-6)]Man(b1-4)GlcNAc(b1-4)GlcNAc
# In short: as §1
# [9] = target: Neu5Ac(a2-3)Gal(b1-4)GlcNAc(b1-3)Gal(b1-4)GlcNAc(b1-3)Gal(b1-4)GlcNAc
# In short: as §1
# [10] = target: Neu5Ac(a2-3)Gal(b1-4)GlcNAc(b1-3)Gal(b1-4)GlcNAc(b1-3)Gal(b1-4)GlcNAc(b1-2)Man(a1-3)[Neu5Ac(a2-3)Gal(b1-4)GlcNAc(b1-3)Gal(b1-4)GlcNAc(b1-3)Gal(b1-4)GlcNAc(b1-2)Man(a1-6)]GalNAc
# In short: as §1
# [11] = target: Neu5Ac(a2-3)Gal(b1-4)GlcNAc(b1-3)Gal(b1-4)GlcNAc(b1-3)GalNAc
# In short: as §1
# [12] = target: Neu5Ac(a2-3)Gal(b1-4)GlcNAc(b1-3)Gal(b1-4)GlcNAc(b1-3)[Neu5Ac(a2-3)Gal(b1-4)GlcNAc(b1-3)Gal(b1-4)GlcNAc(b1-6)]GalNAc
# In short: as §1
# [13] = target: Neu5Ac(a2-3)Gal(b1-4)GlcNAc(b1-3)Gal(b1-4)GlcNAc(b1-6)[Gal(b1-3)]GalNAc
# In short: as §1
# [14] = target: Neu5Ac(a2-3)Gal(b1-4)GlcNAc(b1-3)Gal(b1-4)[Fuc(a1-3)]GlcNAc
# In short: as §1
# [15] = target: Neu5Ac(a2-3)Gal(b1-4)GlcNAc(b1-3)GalNAc
# In short: as §1
# [16] = target: Neu5Ac(a2-3)Gal(b1-4)GlcNAc(b1-3)[Neu5Ac(a2-3)Gal(b1-4)GlcNAc(b1-6)]GalNAc
# In short: as §1
# [17] = target: Neu5Ac(a2-3)Gal(b1-4)GlcNAc(b1-6)GalNAc
# In short: as §1
# [18] = target: Neu5Ac(a2-3)Gal(b1-4)GlcNAc(b1-6)[Gal(b1-3)]GalNAc
# In short: as §1
# [19] = target: Neu5Ac(a2-3)Gal(b1-4)GlcNAc(b1-6)[Neu5Ac(a2-3)Gal(b1-3)]GalNAc
# In short: as §1
# [20] = target: Neu5Ac(a2-3)Gal(b1-4)GlcNAc6S
# In short: as §1
# [21] = target: Neu5Ac(a2-3)Gal(b1-4)[Fuc(a1-3)]GlcNAc
# In short: as §1
# [22] = target: Neu5Ac(a2-3)Gal(b1-4)[Fuc(a1-3)]GlcNAc(b1-2)Man
# In short: as §1
# [23] = target: Neu5Ac(a2-3)Gal(b1-4)[Fuc(a1-3)]GlcNAc(b1-3)Gal
# In short: as §1
# [24] = target: Neu5Ac(a2-3)Gal(b1-4)[Fuc(a1-3)]GlcNAc(b1-3)Gal(b1-4)GlcNAc
# In short: as §1
# [25] = target: Neu5Ac(a2-3)Gal(b1-4)[Fuc(a1-3)]GlcNAc(b1-3)Gal(b1-4)[Fuc(a1-3)]GlcNAc(b1-3)Gal(b1-4)[Fuc(a1-3)]GlcNAc
# In short: as §1
# [26] = target: Neu5Ac(a2-3)Gal(b1-4)[Fuc(a1-3)]GlcNAc(b1-3)GalNAc
# In short: as §1
# [27] = target: Neu5Ac(a2-3)Gal(b1-4)[Fuc(a1-3)]GlcNAc(b1-6)[Gal(b1-3)]GalNAc
# In short: as §1
# [28] = target: Neu5Ac(a2-3)Gal(b1-4)[Fuc(a1-3)]GlcNAc(b1-6)[Neu5Ac(a2-3)Gal(b1-3)]GalNAc
# In short: as §1
# [29] = target: Neu5Ac(a2-3)Gal(b1-4)[Fuc(a1-3)]GlcNAc6S
# In short: as §1
# [30] = target: Neu5Ac(a2-3)Gal6S(b1-4)GlcNAc
# In short: as §1
# [31] = target: Neu5Ac(a2-3)Gal6S(b1-4)[Fuc(a1-3)]GlcNAc
# In short: as §1
# Neu5Ac(a2-3)GalNAc = target: Neu5Ac(a2-3)GalNAc
# In short: as §1
# [32] = target: Neu5Ac(a2-3)GalNAc(b1-4)GlcNAc
# In short: as §1
# [33] = target: Neu5Ac(a2-3)[GalNAc(b1-4)]Gal(b1-4)Glc
# In short: as §1
# [34] = target: Neu5Ac(a2-3)[GalNAc(b1-4)]Gal(b1-4)GlcNAc
# In short: as §1
# [35] = target: Neu5Ac(a2-3)[GalNAc(b1-4)]Gal(b1-4)GlcNAc(b1-3)GalNAc
# In short: as §1
# [36] = target: Neu5Ac(a2-3)[Neu5Ac(a2-6)]GalNAc
# In short: as §1
binder,measurement,setting,value
B1,glycan array binding signal (z-score),[1],-0.553
same,glycan array binding signal (z-score),[2],-0.287
same,glycan array binding signal (z-score),[3],-0.131
same,glycan array binding signal (z-score),[4],-0.407
same,glycan array binding signal (z-score),[5],-0.264
same,glycan array binding signal (z-score),[6],-0.412
same,glycan array binding signal (z-score),[7],-0.414
same,glycan array binding signal (z-score),[8],0.07
same,glycan array binding signal (z-score),[9],0.054
same,glycan array binding signal (z-score),[10],0.289
same,glycan array binding signal (z-score),[11],0.037
same,glycan array binding signal (z-score),[12],-0.292
same,glycan array binding signal (z-score),[13],0.106
same,glycan array binding signal (z-score),[14],-0.009
same,glycan array binding signal (z-score),[15],-0.376
same,glycan array binding signal (z-score),[16],0.148
same,glycan array binding signal (z-score),[17],-0.097
same,glycan array binding signal (z-score),[18],-0.302
same,glycan array binding signal (z-score),[19],-0.214
same,glycan array binding signal (z-score),[20],-0.216
same,glycan array binding signal (z-score),[21],-0.413
same,glycan array binding signal (z-score),[22],0.924
same,glycan array binding signal (z-score),[23],-0.088
same,glycan array binding signal (z-score),[24],0.066
same,glycan array binding signal (z-score),[25],-0.403
same,glycan array binding signal (z-score),[26],-0.755
same,glycan array binding signal (z-score),[27],-0.345
same,glycan array binding signal (z-score),[28],-0.008
same,glycan array binding signal (z-score),[29],0.257
same,glycan array binding signal (z-score),[30],0.077
same,glycan array binding signal (z-score),[31],-0.471
same,glycan array binding signal (z-score),Neu5Ac(a2-3)GalNAc,-0.241
same,glycan array binding signal (z-score),[32],-0.284
same,glycan array binding signal (z-score),[33],-0.504
same,glycan array binding signal (z-score),[34],-0.343
same,glycan array binding signal (z-score),[35],0.273
same,glycan array binding signal (z-score),[36],-0.301
